Laboratory results published in PubChem BioAssay (NCATS).
Several values for one entry are separate records, joined by “and”; a condition that tells them apart may be missing. Equal values may be shown once. Inconclusive results, whose numbers are uncertain, are shown with a selection of clear calls. Where the call is inconclusive, the potency comes from a doubtful curve fit. Activity calls are given as the source filed them. Unless noted, calls come from the whole dose curve; as a rule, active = well fitted curve in the direction sought with a large enough effect; inconclusive = small, poorly fitted or top-dose-only effect, or another doubt; inactive = no such curve, though single readings can be large; an effect the other way counts as inactive or inconclusive.

Tests used:
[1] = biological target: Calcium and integrin-binding protein 1 (Homo sapiens) (UniProt Q99828); assay: Primary qHTS for Identification of Calcium Integrin Binding Protein 1 (CIB1) Competitor (AID 1508620);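 for activity change, negative = inhibition: GST tagged CIB1 binding a fluorescein labelled alphaIIb integrin peptide tracer; top concentration of the series differs between compounds; % is set by controls: 0 for no effect and ±100 for the full control effect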
Sequence of UniProt Q99828 (Q99828 whole entry, looked up): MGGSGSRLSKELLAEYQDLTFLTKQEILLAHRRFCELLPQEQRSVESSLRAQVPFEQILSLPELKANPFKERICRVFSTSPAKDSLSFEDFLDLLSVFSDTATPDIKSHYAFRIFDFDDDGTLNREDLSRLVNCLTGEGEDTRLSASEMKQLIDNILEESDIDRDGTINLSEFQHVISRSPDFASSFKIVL
Method in brief: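 Fluorescence polarization competition: GST-tagged CIB1 (1 uM final) preincubated with compound 15 min at room temperature, then FITC-labelled alphaIIb peptide (100 nM final) added. After 15 min at room temperature, polarization read at Ex 480/Em 540.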

[2] = Confirmatory qHTS for small molecule stabilizers of the endoplasmic reticulum resident proteome: Secreted ER Calcium Modulated Protein (SERCaMP) assay (AID 1508628); note: nearly all actives have a fitted effect of over 40% in size
Method in brief: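 GLuc-SERCaMP-expressing SH-SY5Y cells, pretreated 16 h with compound, are challenged with thapsigargin to empty ER calcium stores; after 4 h, coelenterazine is added directly to the medium and luminescence is imaged.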

[3] = Cell Viability qHTS for small molecule stabilizers of the endoplasmic reticulum resident proteome (AID 1508629); conditions: cell viability counter-screen, 100 nM thapsigargin for final 4 h;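 note: compound exposure about 46 h in total before the viability read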;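 for max response: human SH-SY5Y neuroblastoma cells carrying the GLuc-SERCaMP reporter; % is set by controls: 0 for no effect and ±100 for the full control effect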
[4] = Primary qHTS for small molecule stabilizers of the endoplasmic reticulum resident proteome: Secreted ER Calcium Modulated Protein (SERCaMP) assay (AID 1508630); conditions: SH-SY5Y GLuc-SERCaMP (Gaussia luciferase released on ER calcium loss) secretion, thapsigargin, luminescence; activity change, negative = inhibition: at 38.4 µM (top of the series); for activity change, negative = inhibition: % is set by controls: 0 for no effect and ±100 for the full control effect
Method in brief: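 The SH-SY5Y reporter protocol was run at 3 concentrations up to 38.3 uM (primary) or 11 concentrations (follow-up): 16 h compound, 100 nM thapsigargin for 4 h, then extracellular luciferase luminescence.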

[5] = Counterscreen qHTS for small molecule stabilizers of the endoplasmic reticulum resident proteome: GLuc-NoTag assay (AID 1508627);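 for activity change, negative = inhibition: SH-SY5Y cells given compound then 100 nM thapsigargin to empty ER calcium; 0% = thapsigargin alone and -100% = DMSO vehicle control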
Method in brief: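 Counterscreen line: SH-SY5Y-GLuc-NoTag. Seed, 5 h; compound, 19 h; thapsigargin 100 nM, 4 h; 37C/5% CO2. Readout: secreted GLuc luminescence, coelenterazine 0.07x final, no lysis.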

[6] = biological target: Cytochrome P450 2C9 (Homo sapiens) (UniProt P11712); assay: Cytochrome P450 family 2 subfamily C member 9 (CYP2C9) small molecule antagonists: luciferase biochemical (cell-free) qHTS assay (AID 1645842; active = well fitted curve in the direction sought with a large enough effect in the repeat runs; inconclusive = weak or mixed curves; inactive = no such curve, though single readings can be large; an effect the other way counts as inactive or inconclusive; note: nearly all actives have a fitted effect of over 55% in size; for activity change, negative = inhibition: % is set by controls: 0 for no effect and ±100 for the full control effect)
Sequence of UniProt P11712 (P11712 whole entry, looked up): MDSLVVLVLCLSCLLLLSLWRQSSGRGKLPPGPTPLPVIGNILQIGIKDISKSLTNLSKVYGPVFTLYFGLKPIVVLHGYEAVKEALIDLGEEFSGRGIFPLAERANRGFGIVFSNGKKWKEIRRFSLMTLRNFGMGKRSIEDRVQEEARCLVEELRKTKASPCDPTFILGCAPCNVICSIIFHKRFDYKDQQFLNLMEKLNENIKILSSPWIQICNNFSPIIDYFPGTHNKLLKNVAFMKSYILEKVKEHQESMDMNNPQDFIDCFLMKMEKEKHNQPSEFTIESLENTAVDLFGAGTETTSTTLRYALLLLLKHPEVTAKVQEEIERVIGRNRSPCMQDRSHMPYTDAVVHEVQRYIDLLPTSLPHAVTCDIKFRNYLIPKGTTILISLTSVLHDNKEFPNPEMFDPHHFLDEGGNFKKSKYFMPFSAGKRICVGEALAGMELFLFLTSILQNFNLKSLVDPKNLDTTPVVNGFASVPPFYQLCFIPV
Method in brief: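 P450-Glo CYP2C9 system: proluciferin substrate with enzyme in mix containing 0.4% BSA, 10 min at room temperature, then NADPH regeneration solution added and incubated 1 h at 37C. Detection reagent stopped reaction; luminescence read after 20 min as RLU.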

[7] = biological target: Calcium and integrin-binding protein 1 (Homo sapiens) (UniProt Q99828); assay: Confirmatory qHTS for Identification of Calcium Integrin Binding Protein 1 (CIB1) Competitor (AID 1508617); note: nearly all actives have a fitted effect of over 65% in size
Method in brief: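 Binding competition between test compounds and fluorescent alphaIIb peptide for 1 uM CIB1-GST is monitored by FP at 480/540 nm. Final compound range is up to 114 uM; unlabeled peptide serves as reference competitor.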

[8] = biological target: N-terminal Xaa-Pro-Lys N-methyltransferase 1 (Homo sapiens) (UniProt Q9BV86); assay: Confirmatory qHTS for Inhibitors of N-terminal methyltransferase 1 (NTMT1): MTaseGlo Assay (AID 1645874); note: nearly all actives have a fitted effect of over 65% in size;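 for activity change, negative = inhibition: luminescence from SAH made as NTMT1 methylates SPKRIA peptide using SAM; 0% = DMSO control and -100% = no-enzyme control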
Sequence of UniProt Q9BV86 (Q9BV86 whole entry, looked up): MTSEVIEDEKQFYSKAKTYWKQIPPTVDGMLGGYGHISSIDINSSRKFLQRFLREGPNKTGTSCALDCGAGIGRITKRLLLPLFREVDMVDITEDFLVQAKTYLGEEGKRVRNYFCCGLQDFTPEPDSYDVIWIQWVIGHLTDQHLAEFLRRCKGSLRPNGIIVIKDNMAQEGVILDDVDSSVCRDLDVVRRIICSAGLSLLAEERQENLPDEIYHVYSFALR
Method in brief: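 Room-temperature NTMT1 reaction, 30 min, with 100 uM SAM and 1 uM SPKRIA substrate; enzyme 125 nM. Read-out: MTase-Glo luminescence, normalized to no-enzyme and DMSO controls.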

[9] = Primary qHTS for inhibitors of La Crosse Virus (LACV) - induced cell death in SH-SY5Y cells (AID 1508616)
Method in brief: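 Screening measures cell viability in LACV-infected SH-SY5Y cultures. Compound was added before virus (0.01 MOI), and ATP was detected by luminescence 6 days later.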

[10] = biological target: Cytochrome P450 3A4 (Homo sapiens) (UniProt P08684); assay: Cytochrome P450 family 3 subfamily A member 4 (CYP3A4) small molecule antagonists: luciferase qHTS assay (AID 1645841; active = well fitted curve in the direction sought with a large enough effect in the repeat runs; inconclusive = weak or mixed curves; inactive = no such curve, though single readings can be large; an effect the other way counts as inactive or inconclusive; note: nearly all actives have a fitted effect of over 45% in size)
Sequence of UniProt P08684 (P08684 whole entry, looked up): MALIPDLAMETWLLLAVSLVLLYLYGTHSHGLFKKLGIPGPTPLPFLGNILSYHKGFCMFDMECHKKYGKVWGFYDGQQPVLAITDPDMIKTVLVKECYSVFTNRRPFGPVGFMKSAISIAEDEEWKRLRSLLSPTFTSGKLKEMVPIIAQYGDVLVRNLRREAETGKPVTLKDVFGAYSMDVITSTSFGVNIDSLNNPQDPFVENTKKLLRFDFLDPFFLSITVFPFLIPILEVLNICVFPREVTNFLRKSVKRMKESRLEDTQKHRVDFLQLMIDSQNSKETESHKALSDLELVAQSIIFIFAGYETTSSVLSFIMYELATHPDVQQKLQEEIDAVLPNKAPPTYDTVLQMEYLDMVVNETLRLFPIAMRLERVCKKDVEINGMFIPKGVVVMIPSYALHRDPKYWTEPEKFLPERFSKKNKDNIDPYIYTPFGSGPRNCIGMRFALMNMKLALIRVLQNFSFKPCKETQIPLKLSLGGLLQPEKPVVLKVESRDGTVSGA
Method in brief: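 P450-Glo CYP3A4 enzyme with proluciferin substrate preincubated 10 min with compound at room temperature, then NADPH regeneration 1 h. Luciferin detection reagent added for 20 min; luminescence recorded. Ketoconazole positive control.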

[11] = biological target: Cytochrome P450 2D6 (Homo sapiens) (UniProt P10635); assay: Cytochrome P450 family 2 subfamily D member 6 (CYP2D6) small molecule antagonists: luciferase biochemical (cell-free) qHTS assay (AID 1645840; active = well fitted curve in the direction sought with a large enough effect in the repeat runs; inconclusive = weak or mixed curves; inactive = no such curve, though single readings can be large; an effect the other way counts as inactive or inconclusive; note: nearly all actives have a fitted effect of over 55% in size)
Sequence of UniProt P10635 (P10635 whole entry, looked up): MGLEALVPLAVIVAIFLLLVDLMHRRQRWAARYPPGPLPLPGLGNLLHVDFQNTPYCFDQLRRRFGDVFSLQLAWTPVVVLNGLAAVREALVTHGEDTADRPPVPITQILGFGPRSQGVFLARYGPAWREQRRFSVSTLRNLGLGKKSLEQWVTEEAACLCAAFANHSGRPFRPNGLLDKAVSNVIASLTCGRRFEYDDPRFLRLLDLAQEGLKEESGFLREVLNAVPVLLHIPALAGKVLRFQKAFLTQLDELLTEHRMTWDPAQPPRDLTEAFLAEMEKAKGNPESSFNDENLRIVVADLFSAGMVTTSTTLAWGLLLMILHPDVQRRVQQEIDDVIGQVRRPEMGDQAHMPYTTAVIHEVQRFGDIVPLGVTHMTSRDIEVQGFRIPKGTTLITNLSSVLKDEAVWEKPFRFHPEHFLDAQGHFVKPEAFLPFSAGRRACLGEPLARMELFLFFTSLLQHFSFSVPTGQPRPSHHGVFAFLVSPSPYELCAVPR
Method in brief: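 P450-Glo CYP2D6 system: proluciferin substrate converted by enzyme to luciferin, read by luminescence proportional to activity. Enzyme-substrate mix with compound 10 min at room temperature, then NADPH regeneration 1 h before detection reagent.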

[12] = biological target: Protein phosphatase 1D (Homo sapiens) (UniProt O15297); assay: Rhodamine-PBP qHTS Assay for Modulators of WT P53-Induced Phosphatase 1 (WIP1) (AID 1347425); conditions: recombinant WIP1, Rhodamine-PBP phosphate fluorescence, real-time
Sequence of UniProt O15297 (O15297 whole entry, looked up): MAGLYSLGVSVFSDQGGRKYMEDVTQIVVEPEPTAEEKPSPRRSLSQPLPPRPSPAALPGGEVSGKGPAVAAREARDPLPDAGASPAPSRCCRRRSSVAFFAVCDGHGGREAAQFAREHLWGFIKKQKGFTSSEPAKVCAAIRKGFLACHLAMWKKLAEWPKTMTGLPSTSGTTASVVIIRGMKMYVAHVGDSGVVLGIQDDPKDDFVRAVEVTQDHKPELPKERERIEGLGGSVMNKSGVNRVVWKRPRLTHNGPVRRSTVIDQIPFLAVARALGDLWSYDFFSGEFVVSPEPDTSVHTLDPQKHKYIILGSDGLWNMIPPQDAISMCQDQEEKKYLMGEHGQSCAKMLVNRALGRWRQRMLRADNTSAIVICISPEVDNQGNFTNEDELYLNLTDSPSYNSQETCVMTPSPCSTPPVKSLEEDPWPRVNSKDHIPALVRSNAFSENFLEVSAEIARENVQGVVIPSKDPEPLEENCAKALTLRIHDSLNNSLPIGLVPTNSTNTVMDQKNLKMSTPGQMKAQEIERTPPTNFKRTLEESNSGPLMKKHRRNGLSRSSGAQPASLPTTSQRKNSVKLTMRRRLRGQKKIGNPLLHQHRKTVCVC
Method in brief: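 Steps: enzyme with Rh-PBP sensor and compounds, room-temperature incubation of 1 hr, baseline read, addition of VEPPL-pS-QETFS (10 uM final), kinetic fluorescence reads at 525/598 nm. Activity equals final minus baseline signal.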

[13] = biological target: Calcium and integrin-binding protein 1 (Homo sapiens) (UniProt Q99828); assay: Validation qHTS for Identification of Calcium Integrin Binding protein 1 (CIB1) Competitor (AID 1508618)
Method in brief: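 In this qHTS validation, the LOPAC set (up to 114 uM) was tested for blocking CIB1 binding to a fluorescein-tagged alphaIIb peptide, with FP detection at 480/540 nm.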

[14] = A High-Content qHTS Against Drug Library for the Identification of Small Molecules that Inhibit DYT1 Early Onset Primary Dystonia-Associated Cell Pathology (AID 1645839; calls by dose curve)
Method in brief: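 Cells were seeded and left for 24 h, then dosed with compound alongside tetracycline induction of mutant EGFP-TorsinA. They were incubated for 48 h, fixed in 4% paraformaldehyde, permeabilized and imaged for mislocalization (%pathology) and cell count.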
Potency is the fitted concentration of half-maximal effect; tags give direction and shape of the fitted curve.

Cc1cc2nc3c(=O)[nH]c(=O)nc-3n(CC(O)C(O)C(O)CO)c2cc1C (configuration not stated)
Potency [1]: active: 6.81 µM
Potency [2]: inconclusive: 35.5 µM [inhibitor, partial curve, poor fit]
Potency [3]: inconclusive: 39.8 µM [cytotoxic, partial curve, poor fit]
Potency [4]: inconclusive: 0.211 µM [inhibitor, full curve]

CCCCCCCc1ccc(CCc2cccc(O)c2C(=O)O)cc1
Potency [1]: inconclusive: 24.1 µM [inhibitor, single point]
Potency [4]: inactive

Cn1c(=O)c2c(ncn2C)n(C)c1=O
Potency [5]: inconclusive: 0.251 µM [inhibitor, full curve]
Potency [3]: inconclusive: 1.12 µM [rising, full curve, poor fit] and inconclusive: 126 nM [rising, full curve, poor fit]
max response [3]: inactive: 8.95% [middle of 5 runs]
Potency [4]: inconclusive: 31.6 µM [inhibitor, partial curve, poor fit] and inconclusive: 28.2 µM [inhibitor, single point] and inconclusive: 35.5 µM [inhibitor, partial curve, poor fit]
Potency [6]: inactive

CN1CCCN(C(=O)c2cccc(-c3ccc(C=C4C(=O)Nc5ccc(Cl)cc54)o3)c2)CC1
Potency [7]: active: 35.5 µM
Potency [1]: inconclusive: 15.2 µM [inhibitor, partial curve]
Potency [4]: inactive
Potency [8]: active: 9.16 µM

CC1(C)O[C@H]2CC(=O)OC[C@]23[C@H]2CC[C@@]4(C)[C@H](c5ccoc5)OC(=O)[C@H]5O[C@]54[C@]2(C)C(=O)C[C@@H]13
Potency [9]: inconclusive: 1 µM [inhibitor, partial curve]
Potency [1]: inactive

COc1cc2ncn(-c3cc(OCc4ccccc4S(C)(=O)=O)c(C#N)s3)c2cc1OC
Potency [1]: inactive

O=C(O)c1ccc(-n2nc(-c3ccccc3O)nc2-c2ccccc2O)cc1
Potency [1]: inactive
Potency [4]: inconclusive: 31.6 µM [inhibitor, partial curve, poor fit]
Potency [10]: inactive

C[C@H]1COC2=C1C(=O)C(=O)c1c2ccc2c1CCCC2(C)C
Potency [1]: inconclusive: 30.4 µM [inhibitor, partial curve, poor fit]
Potency [11]: inconclusive: 23.9 µM [inhibitor, single point]

COc1ccc2c(c1)c(CC(=O)OCC(=O)O)c(C)n2C(=O)c1ccc(Cl)cc1
Potency [12]: inconclusive: 15.8 µM [inhibitor, single point]
activity change, negative = inhibition [4]: inconclusive: -33.7% [inhibitor]

c1ccc([C@H]2CN3CCSC3=N2)cc1
Potency [13]: inactive
Potency [4]: inconclusive: 28.2 µM [inhibitor, single point]
Potency [11]: inconclusive: 30.1 µM [inhibitor, single point]

CN(C)CCN1C(=O)c2cccc3cc(N)cc(c23)C1=O
Potency [1]: inconclusive: 1.08 µM [inhibitor, full curve]

CCc1ccc(CCOc2ccc(CC3SC(=O)NC3=O)cc2)nc1 (configuration not stated)
Potency [12]: inconclusive: 28.2 µM [inhibitor, single point]
Potency [4]: inconclusive: 31.6 µM [inhibitor, full curve]
activity change, negative = inhibition [4]: inconclusive: -30.9% [inhibitor]
Potency [6]: inconclusive: 27.5 µM [inhibitor, single point]

CC(=O)N1CCN(c2ccc(OC[C@H]3CO[C@](Cn4ccnc4)(c4ccc(Cl)cc4Cl)O3)cc2)CC1
Potency [5]: inconclusive: 11.2 µM [inhibitor, partial curve, poor fit]
Potency [2]: inconclusive: 25.1 µM [inhibitor, partial curve, poor fit]
Potency [3]: inconclusive: 0.158 µM [rising, full curve]
Potency [4]: inconclusive: 6.31 µM [inhibitor, partial curve, poor fit] and inconclusive: 25.1 µM [inhibitor, single point]

CO[C@@H]1C(N(C)C(=O)c2ccccc2)C[C@H]2O[C@]1(C)n1c3ccccc3c3c4c(c5c6ccccc6n2c5c31)C(=O)NC4=O (some centres not stated)
Potency [7]: active: 15.8 µM
Potency [1]: active: 19.2 µM

O=C1c2cccc(O)c2C(=O)c2c(O)cc(CO)cc21
Potency [1]: inconclusive: 9.61 µM [inhibitor, full curve]
Potency [4]: inactive

COc1ccc2nc(S(=O)Cc3ncc(C)c(OC)c3C)[nH]c2c1 (configuration not stated)
Potency [7]: inconclusive: 28.2 µM [inhibitor, full curve]
Potency [1]: inconclusive: 10.8 µM [inhibitor, partial curve]
Potency [5]: inactive
Potency [2]: inconclusive: 44.7 µM [inhibitor, partial curve]
max response [3]: inactive: -2.62%
Potency [4]: inconclusive: 11.2 µM [inhibitor, partial curve, poor fit]
Potency [6]: inconclusive: 27.5 µM [inhibitor, single point]

O=c1c(O)c(-c2ccc(O)cc2O)oc2cc(O)cc(O)c12
Potency [13]: inconclusive: 3.98 µM [inhibitor, full curve]
Potency [4]: inconclusive: 28.2 µM [inhibitor, single point]
Potency [6]: inconclusive: 23.9 µM [inhibitor, single point]

CN1CCC[C@H]1CCO[C@](C)(c1ccccc1)c1ccc(Cl)cc1
Potency [2]: inconclusive: 39.8 µM [inhibitor, partial curve]
Potency [3]: inconclusive: 15.8 µM [cytotoxic, partial curve]
Potency [4]: inconclusive: 10 µM [inhibitor, partial curve, poor fit]

NS(=O)(=O)c1cc(Cl)c(Cl)c(S(N)(=O)=O)c1
Potency [11]: inactive

Oc1ccc(C2CNCCc3c2cc(O)c(O)c3Cl)cc1 (configuration not stated)
Potency [11]: inconclusive: 11 µM [inhibitor, partial curve]

CN(C)CCC=C1c2ccccc2C=Cc2ccccc21
Potency [6]: inactive
Potency [8]: inactive

CC(=O)SC[C@@H](C)C(=O)N1CCC[C@H]1C(=O)N[C@@H](Cc1ccccc1)C(=O)O
Potency [6]: inconclusive: 21.3 µM [inhibitor, single point]

Cc1ccc(S(=O)(=O)NC(=O)NN2CC3CCCC3C2)cc1 (configuration not stated)
Potency [4]: inconclusive: 35.5 µM [inhibitor, partial curve, poor fit] and inconclusive: 9.4 nM [inhibitor, full curve, poor fit]
Potency [10]: inconclusive: 0.123 µM [falling, full curve, poor fit]

CN(C)CCCC1(c2ccc(F)cc2)OCc2cc(C#N)ccc21 (configuration not stated)
Potency [4]: inconclusive: 31.6 µM [inhibitor, single point]
Potency [8]: inconclusive: 34.5 µM [inhibitor, partial curve]

Cn1c(NCCN(CCO)CCCc2ccc([N+](=O)[O-])cc2)cc(=O)n(C)c1=O
Potency [4]: inconclusive: 10 µM [inhibitor, partial curve, poor fit] and inactive
Potency [11]: inconclusive: 15.5 µM [inhibitor, partial curve]

O=c1[nH]cnc2[nH]ncc12
Potency [4]: inconclusive: 31.6 µM [inhibitor, partial curve, poor fit]

COc1ccc(CC2c3cc(OC)c(OC)cc3CC[N+]2(C)CCC(=O)OCCCCCOC(=O)CC[N+]2(C)CCc3cc(OC)c(OC)cc3C2Cc2ccc(OC)c(OC)c2)cc1OC (configuration not stated)
activity change, negative = inhibition [4]: inactive: 101% [at 7.35 µM]
Potency [11]: inconclusive: 23.9 µM [inhibitor, partial curve]

CC(C)(C)C(=O)Oc1ccc(S(=O)(=O)Nc2ccccc2C(=O)NCC(=O)O)cc1
Potency [4]: inactive
Potency [10]: inconclusive: 23.9 µM [falling, single point]
Potency [6]: inconclusive: 21.3 µM [inhibitor, partial curve, poor fit]

COC(=O)[C@H](CCCN=C(N)N)NS(=O)(=O)c1ccc(C)cc1
Potency [4]: inconclusive: 0.298 µM [inhibitor, full curve]

CN(C)CCN(Cc1ccc(Cl)cc1)c1ccccn1
Potency [14]: inconclusive: 12.6 µM [inhibitor, partial curve, poor fit]

Fc1ccc(Cl)cc1-c1nc(Nc2ccncc2)c2nccnc2n1
Potency [4]: inconclusive: 29.8 µM [inhibitor, single point]

O=c1[nH]c(-c2ccc(C(F)(F)F)cc2)nc2c1CSCC2
Potency [4]: inactive
Potency [11]: inactive
Potency [10]: inconclusive: 21.3 µM [falling, single point]
Potency [6]: active: 19 µM

O=S(=O)(NCCNCC=Cc1ccc(Br)cc1)c1cccc2cnccc12
Potency [4]: inactive

CCN1CCCC1CNC(=O)c1cc(S(N)(=O)=O)ccc1OC (configuration not stated)
Potency [4]: inconclusive: 3.98 µM [inhibitor, full curve, poor fit]

Nc1ccc(S(=O)(=O)Nc2ccccn2)cc1
Potency [4]: inconclusive: 7.94 µM [inhibitor, partial curve, poor fit]
Potency [10]: inconclusive: 13.8 µM [falling, partial curve]
Potency [6]: inactive

N#CC(c1ccc(Cl)cc1)c1c(Cl)cc(-n2ncc(=O)[nH]c2=O)cc1Cl (configuration not stated)
Potency [4]: inactive
Potency [11]: inconclusive: 23.9 µM [inhibitor, single point]

Cc1cc(OCCCS(C)(=O)=O)cc(C)c1-c1cccc(COc2ccc3c(c2)OC[C@H]3CC(=O)O)c1
Potency [4]: inactive
Potency [11]: inconclusive: 23.9 µM [inhibitor, single point]
Potency [6]: active: 21.3 µM

CC1=C(C(=O)Nc2cc3cn[nH]c3cc2F)C(c2ccc(Cl)cc2F)N=C(c2ccnc(Cl)c2)N1 (configuration not stated)
Potency [4]: inconclusive: 2.37 µM [inhibitor, full curve]
Potency [11]: active: 6.74 µM

Cn1cc(-c2ccc3ncc(Cc4ccc5ncccc5c4)n3n2)cn1
Potency [4]: inconclusive: 18.8 µM [inhibitor, single point]
Potency [11]: active: 12 µM
